# Laboratory results from the supplement of paper PMC10338343.
# ± gives the standard deviation. Over roughly 5,500 sequences, “pre-steady-state target cleavage rate” has its median near 0.1; the highest 2% begin near 0.64. This is a selection; strong and weak results do not stand in their true shares.
# System: MIWI (PIWIL1) piRISC loaded with piRNA #2 (30 nt)
# Assay: pre-steady-state target cleavage rate (min^-1); MIWI and MILI are mouse PIWI proteins and EfPiwi is from a freshwater sponge; tags in brackets are library labels; higher = faster piRNA-guided slicing of the target
# Conditions: guide: piRNA #2 5'p-UUAGGUAACCCAGUAGAUCCAGAGGAAUUC; auxiliary factor: 500 nM mouse GTSF1
# Procedure: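 Cleave-'n-Seq: a library of target RNAs (target site embedded in constant flanks, ACAGCATTCCGCGTTAGTGATATCCG... 5' flank; DNA-blocked outside the site) at 0.1 nM was incubated with 1 nM active mouse MILI or MIWI piRISC (synthetic 5'-monophosphorylated piRNA guide) with or without 500 nM mouse GTSF1 at 33 °C for 1 min to 16 h. Uncleaved targets were sequenced and normalised to non-target controls, and the pooled three trials were fitted to a burst-and-steady-state model to give the pre-steady-state cleavage rate (min^-1; k3 is constrained to at most 1e-4). Sequence is the target site only; target names encode pairing extent (gX:gY) and contiguous / 1-mismatch / 2-mismatch / bulge geometry. Fits with R² ≤ 0 are excluded.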
row,Sequence,pre-steady-state target cleavage rate
1,CUUAUCGUCUGGAUCUUCUGGGUUACCUAA,0.139 ± 0.032
2,CUAUUCCUGUGGAUCUACUCGGUUACCUAA,0.0779 ± 0.014
3,GAAUUCCACUGGUUCUACUGGGUUACCUAA,0.495 ± 0.04
4,CUUAAGGUCUGGAUCUACUGGGGUACCUAA,0.052 ± 0.0096
5,CAAUUCCACUGGAUCUACUGGGAUACCUAA,0.455 ± 0.059
6,CUUAUCCUUUGGAUCUACUGGGUUACCUAA,0.49 ± 0.041
7,CUUAACCUCUGGAUCUACUGGCUUACCAAA,0.0497 ± 0.012
8,CUAUUCCUCUGGAAGAACUGGGUUACCUAA,0.16 ± 0.042
9,CUAUUGCUCUGGAUGUACUGGGUUACCUAA,0.227 ± 0.026
10,CUUAUCCUCUGGAUCUACUGGAUUACCUAA,0.402 ± 0.049
11,CUUAUCCUCUGGAUCUACUCGGUUAGCUAA,0.0153 ± 0.008
12,CAUUUCCUCUGGAUCUUCUGGGUUACCUAA,0.551 ± 0.067
13,CUUAUCCACUGGAUCUACUGGGUUUCCUAA,0.371 ± 0.05
14,CUUAAGCACUGGAUCUACUGGGUUACGUAA,0.458 ± 0.044
15,CUUUUCUCUGGAUCUACUGGGUUACCUAA,0.276 ± 0.046
16,GAAUUCCUCAGGAUCUACUGGGUUACCUUA,0.467 ± 0.061
17,GAAAUCCUCUGCAUCUACUGGGUUACCUAA,0.326 ± 0.038
18,CUUUUCCUCUGGAUCUACUGGGUUUGCUAA,0.289 ± 0.045
19,CUUAAGCUCUGGAUCUACUGGGUUAACUAA,0.381 ± 0.041
20,CUAUUCCUGUGGAUGUACUGGGUUACCUAA,0.459 ± 0.04
21,CUUAACCUCUGGAUCUACUGGGUUACCUAC [g2:g25:cont:t1C],0.21 ± 0.025
22,CUUAUCCUCUGGAUCUACUGGGUUACCUAA [g2:g26:cont:t1A],0.414 ± 0.063
23,CUUAACCUCACGAUCUACUGGGUUACCUAA,0.284 ± 0.025
24,CUUAAGCUCUGGAUCUACGGGGUUACCUAA,0.032 ± 0.0074

row,Sequence,pre-steady-state target cleavage rate
1,CUUAAGCUCAGGAUCUACUCGGUUACCUAA,0.038 ± 0.013
2,GAAUUCGUCUGGAUCUACUGCGUUACCUAA,0.329 ± 0.041
3,CUUAUCCUCUGGAUCUACUGGGUUACGAUA,0.25 ± 0.048
4,CUUUUCCUCUGGAUCUACUGGGUUAGGAAA,0.00704 ± 0.0024
5,CUUAAGGAGUGGAUCUACUGCGUUACCAAA,0.00817 ± 0.005
6,CUUAACGUGUGGAUCUACUGGGUUACCUAA,0.282 ± 0.039
7,CAAUUCCUCUGGAUCUACUGGGGUACCUAA,0.229 ± 0.057
8,GAAUUCCUCUGGUUCUACUGGGUUAGCUAA,0.495 ± 0.049
9,CUUAAGGACUGGAUCUACUGGGUUACCUAC [g2:g22:cont:t1C],0.119 ± 0.05
10,CAUUUGCUCUGGAUCUACUGGGUUACCUAA,0.291 ± 0.041
11,CUUAUCCUCUCGAUCUAGUGGGUUACCUAA,0.292 ± 0.021
12,GAAUUCCUCUGGAUCUACUGGGUUACCUA,0.37 ± 0.07
13,CUUAAGCUCUGGAUCUACUGGGUAACCUUA,0.0535 ± 0.016
14,GAUUUCCUCUGCAUCUACUGGGUUACCUAA,0.269 ± 0.036
15,CUUAUCCUGUGGAUCUACAGGGUUACCUAA,0.363 ± 0.028
16,CUUUUCCUCUGGAUGUAGUGGGUUACCUAA,0.0917 ± 0.017
17,GAAUUCCUCUGGAUCUACUGCCAUACCUAA,0.00422 ± 0.0027
18,CAAUUCCUCUGGAUCUACUGGCAUACCUAA,0.00973 ± 0.0052
19,CAAUUCACUCUGGAUCUACUGGGUUACCUAA,0.266 ± 0.049
20,CUUAUCCUCUGCGAUCUACUGGGUUACCUAA,0.315 ± 0.03
21,CUUAAGGUCUGGUUCUACAGGGUUACCUAA,0.119 ± 0.011
22,CAAAUCCUCUGGAUCUACUGGGUUUCCUAA,0.268 ± 0.042
23,GAAAUCCUGUGGAUCUACUGGGUUACCUAA,0.278 ± 0.059
24,CUUUUCGUCUGGAUCUACUGGGUUAGCUAA,0.17 ± 0.044

row,Sequence,pre-steady-state target cleavage rate
1,GAAUUCCUCUGGAUCUACUGCGGUUACCUAA,0.00432 ± 0.0031
2,CUUAAGGAGAGGAUCUACUGGGUUACCUGAA,0.00519 ± 0.004
3,CUUUUCGUCUGGAUCUACUGGGUUACCUAA,0.353 ± 0.046
4,CUUAUCCUCUGGCAUCUACUGGGUUACCUAA,0.136 ± 0.038
5,CAAUUCCUCUGGAUCUACUGGCUUUCCUAA,0.089 ± 0.028
6,CUUAAGCUGAGGAUCUACUGGGUUACCUAA,0.0478 ± 0.0073
7,CAAUUCCUCUGGAUGUAGUGGGUUACCUAA,0.0865 ± 0.02
8,GAAUUCCUCUGGAUCUACUGGGUUUCCUUA,0.309 ± 0.083
9,CUUUUCCUGUGGAUGUACUGGGUUACCUAA,0.384 ± 0.035
10,CAAUUCCUGUGGAUCUACUGGGUUAGCUAA,0.133 ± 0.044
11,CAAUUCCUGUGGAUCUAGUGGGUUACCUAA,0.16 ± 0.028
12,CUUAAGGAGCGGAUCUACUGGGUUACCUAA,0.0188 ± 0.013
13,CUUAACCUCAGGAUCUACUGGGUAACCUAA,0.117 ± 0.024
14,GUAUUCCUCUGCAUCUACUGGGUUACCUAA,0.223 ± 0.068
15,CUUUUCCUCUGGAACAACUGGGUUACCUAA,0.4 ± 0.037
16,CAAUUCCUCUGGAUCUUCUGGGUUAGCUAA,0.181 ± 0.061
17,CUUAAGCUCUGGAUCUACUGGGAUACGUAA,0.142 ± 0.022
18,CUUUUCCUCUGGAACUACUGGGUUACCUUA,0.247 ± 0.035
19,CUUUUCCUGUGGAUCUAGUGGGUUACCUAA,0.201 ± 0.017
20,CUAUUCCUCUGGAUCAACAGGGUUACCUAA,0.21 ± 0.025
21,CUUAACCUGUGGAUGUACUGGGUUACCUAA,0.373 ± 0.054
22,CUUUUCCUCUCGAUCUACUGGGUUACGUAA,0.746 ± 0.034
23,CUUAAGCUGUGGAUCUACUGGGUUACGUAA,0.324 ± 0.059
